# Reference: the supplement of paper PMC8728848
# This is one part of the list.
# B1: Arath Fbox (Arabidopsis thaliana), NP_178341.1 (protein)
# chain: EFTWGRKRRVKSESSPFDSFPEDCISYIISFTNPRDACVAATVSKTFESTVKSDIIWEKFLPADYESLIPPSRVFSSKKELYFSLCNDPVLFDDDKKSVWLEKASGKRCLMLSAMNLSIIWGDNPQYWQWIPIPESRFEKVAKLRDVCWFEIRGRTNTRVLSPRTRYSAYIVFKGVDKCYGFQNVAIEAAVGVVGQEPSRRLICFSEAIRRGRRNVVKPKQREDGWMEIELGEFFNDGGIMDNDEIEMSALETKQLNRKCGLIIQGIEIRPAKILAAAAASFLEQKLISEEDLNSAVDHHHHHH
# Key:
# Experiment in all cases: glycan array binding signal (z-score within array); higher = stronger binding
# Settings in all cases: glycan notation: IUPAC condensed, linker removed
# [1] = target: Neu5Ac(a2-6)Gal(b1-4)GlcNAc(b1-2)Man(a1-3)[GlcNAc(b1-4)][Neu5Ac(a2-6)Gal(b1-4)GlcNAc(b1-2)Man(a1-6)]Man(b1-4)GlcNAc(b1-4)GlcNAc
# How it was run: (§1)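 Glycan array data were curated from 3228 arrays in the Consortium for Functional Glycomics database and kept only where the protein sequence was available. Glycan names were converted to IUPAC-condensed notation, and columns mapping to the same glycan were averaged. The binding signal is a within-array Z-score, averaged across arrays of the same protein sequence at different concentrations or buffers and across linkers. Negative Z-scores can be read as non-binding.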
# [2] = target: Neu5Ac(a2-6)Gal(b1-4)GlcNAc(b1-2)Man(a1-3)[Man(a1-6)]Man(b1-4)GlcNAc(b1-4)GlcNAc
# How it was run: as §1
# [3] = target: Neu5Ac(a2-6)Gal(b1-4)GlcNAc(b1-2)Man(a1-3)[Neu5Ac(a2-3)Gal(b1-4)GlcNAc(b1-2)Man(a1-6)]Man(b1-4)GlcNAc(b1-4)GlcNAc
# How it was run: as §1
# [4] = target: Neu5Ac(a2-6)Gal(b1-4)GlcNAc(b1-2)Man(a1-3)[Neu5Ac(a2-6)Gal(b1-4)GlcNAc(b1-2)Man(a1-6)]Man(b1-4)GlcNAc(b1-4)GlcNAc
# How it was run: as §1
# [5] = target: Neu5Ac(a2-6)Gal(b1-4)GlcNAc(b1-2)Man(a1-3)[Neu5Ac(a2-6)Gal(b1-4)GlcNAc(b1-2)Man(a1-6)]Man(b1-4)GlcNAc(b1-4)[Fuc(a1-6)]GlcNAc
# How it was run: as §1
# [6] = target: Neu5Ac(a2-6)Gal(b1-4)GlcNAc(b1-2)Man(a1-6)Man(b1-4)GlcNAc(b1-4)GlcNAc
# How it was run: as §1
# [7] = target: Neu5Ac(a2-6)Gal(b1-4)GlcNAc(b1-2)Man(a1-6)[Gal(b1-4)GlcNAc(b1-2)Man(a1-3)]Man(b1-4)GlcNAc(b1-4)GlcNAc
# How it was run: as §1
# [8] = target: Neu5Ac(a2-6)Gal(b1-4)GlcNAc(b1-2)Man(a1-6)[GlcNAc(b1-2)Man(a1-3)]Man(b1-4)GlcNAc(b1-4)GlcNAc
# How it was run: as §1
# [9] = target: Neu5Ac(a2-6)Gal(b1-4)GlcNAc(b1-2)Man(a1-6)[Man(a1-3)]Man(b1-4)GlcNAc(b1-4)GlcNAc
# How it was run: as §1
# [10] = target: Neu5Ac(a2-6)Gal(b1-4)GlcNAc(b1-2)[Neu5Ac(a2-6)Gal(b1-4)GlcNAc(b1-4)]Man(a1-3)[GlcNAc(b1-4)][Neu5Ac(a2-6)Gal(b1-4)GlcNAc(b1-2)[Neu5Ac(a2-6)Gal(b1-4)GlcNAc(b1-6)]Man(a1-6)]Man(b1-4)GlcNAc(b1-4)GlcNAc
# How it was run: as §1
# [11] = target: Neu5Ac(a2-6)Gal(b1-4)GlcNAc(b1-2)[Neu5Ac(a2-6)Gal(b1-4)GlcNAc(b1-4)]Man(a1-3)[GlcNAc(b1-4)][Neu5Ac(a2-6)Gal(b1-4)GlcNAc(b1-4)Man(a1-6)]Man(b1-4)GlcNAc(b1-4)GlcNAc
# How it was run: as §1
# [12] = target: Neu5Ac(a2-6)Gal(b1-4)GlcNAc(b1-2)[Neu5Ac(a2-6)Gal(b1-4)GlcNAc(b1-6)]Man(a1-6)[Neu5Ac(a2-6)Gal(b1-4)GlcNAc(b1-2)Man(a1-3)][GlcNAc(b1-4)]Man(b1-4)GlcNAc(b1-4)GlcNAc
# How it was run: as §1
# [13] = target: Neu5Ac(a2-6)Gal(b1-4)GlcNAc(b1-3)Gal(b1-3)GlcNAc
# How it was run: as §1
# [14] = target: Neu5Ac(a2-6)Gal(b1-4)GlcNAc(b1-3)Gal(b1-4)GlcNAc
# How it was run: as §1
# [15] = target: Neu5Ac(a2-6)Gal(b1-4)GlcNAc(b1-3)Gal(b1-4)GlcNAc(b1-2)Man(a1-3)[Neu5Ac(a2-6)Gal(b1-4)GlcNAc(b1-3)Gal(b1-4)GlcNAc(b1-2)Man(a1-6)]GalNAc
# How it was run: as §1
# [16] = target: Neu5Ac(a2-6)Gal(b1-4)GlcNAc(b1-3)Gal(b1-4)GlcNAc(b1-3)Gal(b1-4)GlcNAc
# How it was run: as §1
# [17] = target: Neu5Ac(a2-6)Gal(b1-4)GlcNAc(b1-3)Gal(b1-4)GlcNAc(b1-3)Gal(b1-4)GlcNAc(b1-2)Man(a1-3)[Neu5Ac(a2-6)Gal(b1-4)GlcNAc(b1-3)Gal(b1-4)GlcNAc(b1-3)Gal(b1-4)GlcNAc(b1-2)Man(a1-6)]GalNAc
# How it was run: as §1
# [18] = target: Neu5Ac(a2-6)Gal(b1-4)GlcNAc(b1-3)Gal(b1-4)GlcNAc(b1-3)GalNAc
# How it was run: as §1
# [19] = target: Neu5Ac(a2-6)Gal(b1-4)GlcNAc(b1-3)Gal(b1-4)GlcNAc(b1-3)[Neu5Ac(a2-6)Gal(b1-4)GlcNAc(b1-3)Gal(b1-4)GlcNAc(b1-6)]GalNAc
# How it was run: as §1
# [20] = target: Neu5Ac(a2-6)Gal(b1-4)GlcNAc(b1-3)Gal(b1-4)GlcNAc(b1-6)[Gal(b1-3)]GalNAc
# How it was run: as §1
# [21] = target: Neu5Ac(a2-6)Gal(b1-4)GlcNAc(b1-3)Gal(b1-4)[Fuc(a1-3)]GlcNAc(b1-3)Gal(b1-4)[Fuc(a1-3)]GlcNAc
# How it was run: as §1
# [22] = target: Neu5Ac(a2-6)Gal(b1-4)GlcNAc(b1-3)GalNAc
# How it was run: as §1
# [23] = target: Neu5Ac(a2-6)Gal(b1-4)GlcNAc(b1-3)[Neu5Ac(a2-6)Gal(b1-4)GlcNAc(b1-6)]GalNAc
# How it was run: as §1
# [24] = target: Neu5Ac(a2-6)Gal(b1-4)GlcNAc(b1-6)GalNAc
# How it was run: as §1
# [25] = target: Neu5Ac(a2-6)Gal(b1-4)GlcNAc(b1-6)[Gal(b1-3)GlcNAc(b1-3)]Gal(b1-4)Glc
# How it was run: as §1
# [26] = target: Neu5Ac(a2-6)Gal(b1-4)GlcNAc(b1-6)[Gal(b1-3)]GalNAc
# How it was run: as §1
# [27] = target: Neu5Ac(a2-6)Gal(b1-4)GlcNAc6S
# How it was run: as §1
# Neu5Ac(a2-6)GalNAc = target: Neu5Ac(a2-6)GalNAc
# How it was run: as §1
# [28] = target: Neu5Ac(a2-6)GalNAc(b1-4)GlcNAc
# How it was run: as §1
# [29] = target: Neu5Ac(a2-6)GalNAc(b1-4)GlcNAc6S
# How it was run: as §1
# [30] = target: Neu5Ac(a2-6)GlcNAc(b1-4)GlcNAc
# How it was run: as §1
binder,measurement,setting,value
B1,glycan array binding signal (z-score),[1],-0.647
same,glycan array binding signal (z-score),[2],-0.106
same,glycan array binding signal (z-score),[3],-0.525
same,glycan array binding signal (z-score),[4],-0.41
same,glycan array binding signal (z-score),[5],-0.642
same,glycan array binding signal (z-score),[6],-0.782
same,glycan array binding signal (z-score),[7],3.21
same,glycan array binding signal (z-score),[8],0.859
same,glycan array binding signal (z-score),[9],-0.73
same,glycan array binding signal (z-score),[10],-0.533
same,glycan array binding signal (z-score),[11],-0.603
same,glycan array binding signal (z-score),[12],-0.112
same,glycan array binding signal (z-score),[13],-0.287
same,glycan array binding signal (z-score),[14],-0.262
same,glycan array binding signal (z-score),[15],0.131
same,glycan array binding signal (z-score),[16],-0.394
same,glycan array binding signal (z-score),[17],0.442
same,glycan array binding signal (z-score),[18],-0.507
same,glycan array binding signal (z-score),[19],0.842
same,glycan array binding signal (z-score),[20],-0.744
same,glycan array binding signal (z-score),[21],-0.592
same,glycan array binding signal (z-score),[22],-0.123
same,glycan array binding signal (z-score),[23],-0.722
same,glycan array binding signal (z-score),[24],-0.521
same,glycan array binding signal (z-score),[25],0.366
same,glycan array binding signal (z-score),[26],-0.396
same,glycan array binding signal (z-score),[27],-0.613
same,glycan array binding signal (z-score),Neu5Ac(a2-6)GalNAc,-0.759
same,glycan array binding signal (z-score),[28],-0.344
same,glycan array binding signal (z-score),[29],-0.31
same,glycan array binding signal (z-score),[30],-0.68
